Target: T1, rhCD25-Fc (human, UniProt P01589 22-213)
T1 construct: Used as SPR analyte at 1 to 16 nM; also called IL-2Rα-Fc; not shown: Fc part of the reagent
T1 sequence (looked up): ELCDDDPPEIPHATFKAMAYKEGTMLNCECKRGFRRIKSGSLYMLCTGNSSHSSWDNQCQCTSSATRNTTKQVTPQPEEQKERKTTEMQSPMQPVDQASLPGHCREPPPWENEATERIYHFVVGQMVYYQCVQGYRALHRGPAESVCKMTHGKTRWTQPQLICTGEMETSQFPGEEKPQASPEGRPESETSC
Test: SPR, 329141 immobilised, rhCD25-Fc as analyte

binding result: no binding
B1: 329141 construct (IL2-L1-CH2-L2-IL-2Rα-LH masked cytokine receptor binding protein) (other)
chain: [about 150 residues cut from this listing]GGVPLSLYSGNGGPSVFLFPPKPKDTLMISRTPEVTCVVVDVSHEDPEVKFNWYVDGVEVHNAKTKPREEQYNSTYRVVSVLTVLHQDWLNGKEYKCKVSNKALPAPIEKTISKAKGQPGASASGGGMLSLELCDDDPPEIPHATFKAMAYKEGTMLNCECKRGFRRIKSGSLYMLCTGSSSHSSWDNQCQCTSSATRSTTKQVTPQPEEQKERKTTEMQSPMQPVDQASLPGHCREPPPWENEATERIYHFVVGQMVYYQCVQGYRALHRGPAESVCKMTHGKTRWTQPQLICTGEASGGGGHHHHHH
notes: Tested uncleaved (masked) and immobilised on the SPR chip; also called IL2-CH2-IL2Ra construct

From patent US20210221864A1 (CITY OF HOPE, published 2021)
